According to PubChem BioAssay AID493208 (National Center for Advancing Translational Sciences (NCATS), 2011):
The whole screen tested about 44,000 compounds, of which about 340 (0.77%) were called active. Another 5% or so got no clear call; they are omitted. Calls follow the shape of the dose curve; as a rule, active = well fitted inhibition curve with a large enough effect; inconclusive = small, poorly fitted or top-dose-only effect; inactive = flat fitted curve, though single readings scatter. This is one part of the list.

experiment: Acumen qHTS Assay for Inhibitors of the mTORC1 Signaling Pathway in MEF (Tsc2-/-, p53-/-) Cells: Sytravon; conditions: phospho-rpS6 immunofluorescence/PI, 24 h; series mostly up to 38.3 µM; activity change, negative = inhibition: at the top concentration;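 also: plate controls were DMSO for no effect and rapamycin for full effect; nearly all actives have a fitted effect of over 50% in size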
Summary of the method: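 Compounds act on Tsc2-/-, p53-/- fibroblasts carrying an empty vector for 24 h before fixation and dual staining for phospho-S6 and DNA (propidium iodide). Values are percentages of cells above a rapamycin-defined pS6/PI threshold.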

Activity change, negative = inhibition, inactive:
COc1ccc(-n2c(=O)c3c4c(sc3n(Cc3c(F)cccc3Cl)c2=O)CN(C(C)=O)CC4)cc1OC -0.407%
O=C(Nc1ccc(F)cc1)c1ncn(-c2ccccc2)n1 -6.32%
Cc1ccc(-c2noc(CN(C(=O)c3ccc(C(C)(C)C)cc3)C(C)C)n2)cc1 -8.07%
COc1cccc(NC(=O)Cn2c(=O)c3cccn3c3ccc(F)cc32)c1 3.23%
CCOC(=O)c1ccccc1NC(=O)CN(c1cc(C(F)(F)F)ccc1Cl)S(C)(=O)=O -2.94%
CCCCSCCCNC(=O)c1cn(CC)c2ccc(S(=O)(=O)N(C)C3CCCCC3)cc2c1=O -0.312%
COc1cccc(-c2nc(SCC(=O)NCc3ccccc3)c3c(=O)n(C)c(=O)n(C)c3n2)c1 -11.7%
O=C(Cn1ccc2cc(S(=O)(=O)N3CCCCCC3)ccc21)NCCc1ccccc1Cl -9.59%
Cc1ccc(CCNC(=O)CCS(=O)(=O)c2ccc3c(c2)oc(=O)n3C)cc1 0.561%
COc1cccc(N2CCN(S(=O)(=O)c3ccc(-c4cc(C(F)(F)F)on4)s3)CC2)c1 -1.87%
Cc1noc(NS(=O)(=O)c2ccc(NC(=O)COc3ccccc3Br)cc2)c1C -6.75%
CCOc1ccccc1NC(=O)Nc1ccccc1OCc1cc(=O)n2ccccc2n1 -5.92%
CN(CC(=O)NCc1ccc(Cl)cc1)S(=O)(=O)c1ccc2c(c1)c(=O)n(C)c(=O)n2C 0.96%
Cc1ccc(CCNC(=O)c2ccc(CS(=O)(=O)Cc3ccc(Cl)cc3)o2)cc1 -9.77%
CCOC(=O)c1scc(-c2ccc(C)cc2)c1S(=O)(=O)Nc1cc(C)ccc1C -15.4%
CCOc1ccccc1NC(=O)Cn1c(=O)n(-c2ccc(C)c(C)c2)c(=O)c2c(C)c(C(=O)N(C)C)sc21 -0.516%
CC(Nc1ncnc2c1cnn2-c1cccc(Cl)c1)c1ccccc1 (stereo unspecified) -24.5%
COc1cccc(-c2nnc(SCC(=O)N3CCc4ccccc43)o2)c1 0.454%
O=C(NCc1ccc(Cl)cc1)C(=O)NCC(c1cccnc1)N1CCN(c2ccccc2)CC1 (stereo unspecified) -7.51%
Cc1cc2c(cc1C)NC(CC(=O)Nc1cccc(C)c1C)C(=O)N2 (stereo unspecified) -11.8%
CCN(Cc1ccccc1)C(=O)CN1C(=O)COc2ccc(S(=O)(=O)N3CCOCC3)cc21 -1.81%
CCN(c1ccc(C)cc1C)S(=O)(=O)c1nnc(NC(=O)c2ccc(F)cc2)s1 4.06%
Cc1ccc2oc(=O)c(-c3nc(-c4cccs4)no3)cc2c1 -4.29%
COc1cccc(-c2cc(C(=O)Nc3ccc(OC)cc3OC)no2)c1 -0.534%
Cc1nn(CCC(=O)Nc2cccc(C#N)c2)c(C)c1S(=O)(=O)N1CCC(C)CC1 6.41%
COC(=O)c1ccccc1NC(=O)Cc1nc(-c2ccc(OC)cc2)no1 0.479%
COc1ccc(-n2cnc3cc(C(=O)NCCC4=CCCCC4)ccc32)cc1 0.373%
O=C(Nc1cccc(C(=O)OCc2cc(=O)n3ccsc3n2)c1)c1ccc(F)cc1 21.9%
COc1ccc(OC)c(NC(=O)CN(c2ccccc2OC)S(=O)(=O)c2ccc(C)cc2)c1 -8.74%
Cc1csc2nc(COC(=O)c3ccc(NC(=O)c4ccccc4Br)cc3)cc(=O)n12 -3.71%
CCOCCCNC(=O)CCC(=O)NNc1nc2ccccc2c2nc(C)nn12 -1.32%
Cc1nc2nc(SCC(=O)NCCc3ccc(Cl)cc3)nn2c(C)c1Cc1c(F)cccc1Cl -24.9%
CCCOc1ccc(C(=O)Nc2cccc(NC(=O)c3ccc(Cl)cc3Cl)c2)cc1 -10.2%
Cc1nn(CC(=O)NCc2ccco2)c(=O)c2nn(-c3ccccc3)c(C)c12 0.0523%
CC(=O)N1CCc2cc(CNS(=O)(=O)c3ccccc3C(F)(F)F)ccc21 8.41%
Cc1cc(C)cc(NC(=O)Cn2c(C)cc(C)c(C#N)c2=O)c1 13.6%
O=C(CSc1nc2ccccc2n1Cc1cccc(C(F)(F)F)c1)NCc1ccccc1 0%
CCOc1cccc(C2Oc3nc(SC)nnc3-c3ccccc3N2C(C)=O)c1OC (stereo unspecified) -4.05%
CC(=O)Nc1ccc(NC(=O)c2c(-c3ccccc3)noc2C)cc1 2.08%
O=C(O)c1ccc(CSc2nc3cccnc3n2Cc2cccc(F)c2)cc1 -0.182%
Nc1ncc(S(=O)(=O)N2CCN(c3ccccc3)CC2)cn1 -0.0412%
COC(=O)CC1Oc2ccc(Cl)cc2-n2cc(-c3ccc(C)cc3)nc21 (stereo unspecified) -6.82%
COc1cc(NC(=O)CSc2ccc(-c3sc(C)nc3C)nn2)cc(OC)c1 -12.6%
Cc1ccc(S(=O)(=O)C(CNC(=O)C(=O)NCCc2ccc(F)cc2)c2cccs2)cc1 (stereo unspecified) -11%
O=C(CSc1nc2c([nH]c3ccccc32)c(=O)n1-c1ccc(F)cc1)Nc1ccc2c(c1)OCO2 -2.61%
COc1ccc(Cl)cc1NC(=O)c1oc2ccc(S(=O)(=O)N3CCCCC3)cc2c1C 1.09%
COc1ccc(N2CCN(C(=O)c3ccc(CS(=O)c4cccc(C)c4)o3)CC2)cc1 (stereo unspecified) -17.9%
Oc1c(C(c2cccc(Cl)c2)N2CCOCC2)sc2nc(-c3ccco3)nn12 (stereo unspecified) -0.45%
CCN1c2ccccc2-c2nc(SCC(=O)Nc3cc(C)c(Cl)cc3OC)ncc2S1(=O)=O 0%
COc1ccc(CCNC(=O)c2c3c(nc4ccccc24)C(=O)N(C2CCCCC2)C3)cc1OC -7.97%
Cc1ccc(C)c(N2CCN(c3nc4ccccc4n4nnnc34)CC2)c1 1.03%
O=C(COc1ccc(F)cc1)NCc1ccc2c(c1)CCN2C(=O)c1ccc(F)cc1 -6.91%
O=C(Nc1ccc(F)c(Cl)c1)C1CCN(c2ncccn2)CC1 3.41%
Cc1cccc(OCC(=O)Nc2ccc(S(=O)(=O)N(Cc3ccccc3)c3ccccc3)cc2)c1 -8.47%
Cc1cc(-n2c(C)nc3ccccc3c2=O)ccc1NC(=O)c1cccc([N+](=O)[O-])c1C -0.578%
CCc1nn(CC(=O)NCC(C)c2ccccc2)c(=O)c2cc3c(OC)cccc3n12 (stereo unspecified) 0.666%
COC(=O)c1ccccc1NC(=O)C1CCCN(C(=O)c2cnn(-c3ccc(F)cc3)c2-n2cccc2)C1 (stereo unspecified) -5.04%
Cc1cc(Br)cc(C)c1OCC(=O)Nc1ccc(S(=O)(=O)Nc2ncccn2)cc1 6.78%
COCCn1c(=O)[nH]c2cc(C(=O)N3CCN(c4ccc(F)cc4)CC3)ccc2c1=O -10.3%
Cc1ccc(-n2ncc3c(N4CCN(Cc5ccccc5)CC4)ncnc32)cc1C 2.44%
N#C/C(=C\c1ccc(-c2ccc(Br)cc2)o1)C(=O)Nc1ccccc1O 5.67%
Cc1oc(-c2ccccc2F)nc1Cn1c(SCc2cccc(Cl)c2)nc2ccncc21 -9.95%
CCOCCc1nn2c(=O)cc(COC(=O)c3ccccc3Br)nc2s1 1.75%
Cc1ccc(CNC(=O)C(=O)NCC(c2cccs2)S(=O)(=O)c2ccccc2)cc1 (stereo unspecified) -15.1%
CCCn1c(=N)c(C(=O)NCc2ccccc2)cc2c(=O)n3cccc(C)c3nc21 -1.24%
Cc1oc2ccc(O)c(CN3CCN(Cc4ccccc4)CC3)c2c1C(=O)Nc1ccccc1 -4.41%
CN(C)c1ccc(CNC(=O)CN2C(=O)c3cccnc3Oc3ccc(Cl)cc32)cc1 2.76%
Cc1nn(CC(=O)NCc2cccc(Br)c2)c(=O)c2c1sc1ccccc12 -2.52%
Cc1cc(C)c(S(=O)(=O)NCCc2cc3cc(C)c(C)cc3[nH]c2=O)c(C)c1 -3.15%
O=S(=O)(NCCc1nnc2ccc(SCc3ccc(C(F)(F)F)cc3)nn12)c1ccccc1 -7.31%
COc1ccc(NC(=O)CSc2nnc(-c3ccc(OC)cc3)s2)cc1 -4.04%
COc1cccc(C(c2sc3nc(-c4ccco4)nn3c2O)N2CCOCC2)c1 (stereo unspecified) -0.525%
Cc1ccc(Nc2nc3ccc(C)cc3nc2-n2nc(C)cc2C)c(C)c1 -0.167%
CC(C)C(=O)Nc1nnc(S(=O)(=O)N2CCCCCC2)s1 -17.6%
O=C(C1COc2ccccc2O1)N1CCN(c2nc3c(F)cccc3s2)CC1 (stereo unspecified) 5.52%
COc1ccc(N(CC(=O)NCc2ccccc2Cl)S(=O)(=O)c2c(C)[nH]c(=O)[nH]c2=O)cc1 -11.4%
COCCNC(=O)C1CCC(CNS(=O)(=O)c2ccc3c(c2)CC(C)N3C(C)=O)CC1 (stereo unspecified) 2.37%
COc1cc(C(CC(=O)Nc2ccc(Br)cn2)N2Cc3ccccc3C2=O)cc(OC)c1OC (stereo unspecified) -13.2%
Cc1ccc(N(Cc2cccs2)C(=O)Nc2cccc(Cl)c2)cc1 4.56%
Cc1ccc(CNC(=O)c2c(O)nc3ccccn3c2=O)cc1 1.46%
Cc1ccc(Cn2c(=O)n(CC3CCC(C(=O)N4CCC(C)CC4)CC3)c(=O)c3sccc32)cc1 (stereo unspecified) 2.84%
Cc1oc2c(c1C(=O)Nc1ccccc1Br)C1=NCCN1C=N2 -14%
COc1cccc(CNC(=O)c2sc3nc4n(c(=O)c3c2C)CCC4)c1 0%
O=C(NCCc1cccs1)c1ccc(Cn2c(SCc3ccccc3)nc3cccnc32)cc1 -0.0387%
COc1ccc(N2CC3=C(C2=O)C(c2ccc(O)c(OC)c2)NC(=O)N3C)cc1 (stereo unspecified) -0.244%
CCOc1ccccc1NC(=O)Cn1cnc2c1c(=O)n(C)c(=O)n2C 1.46%
CCOC(=O)c1ccccc1NC(=O)c1cc2c(s1)-c1c(C)cccc1OC2 4.44%
CC(C)OCCCNc1sc(S(=O)(=O)c2ccccc2)nc1S(=O)(=O)c1ccc(Cl)cc1 -12.8%
CCOc1ccccc1NC(=O)CSc1nc2c(oc3ccccc32)c(=O)n1C(C)C -7.55%
COCCCNC(=O)c1cc(-c2ccc(OC)cc2)nc2n[nH]c(-c3ccc(Cl)cc3)c12 -2.47%
COc1ccc(CCNC(=O)c2cnc3ccc(C)cn3c2=O)cc1OC 0.201%
Cn1ncc2c(NCc3ccc(Cl)cc3)ncnc21 7.54%
Cc1c(C(=O)Nc2ccc(F)cc2F)oc2ccc3c(c12)C(=O)CC(C)(C)O3 0.246%
CCOC(=O)c1cc(-c2ccc(OC)cc2)n(CCC(=O)NCc2ccccc2OC)c1C -0.358%
CCOc1ccc(NC(=O)CSc2ncn[nH]2)cc1 -0.261%
Cc1ccsc1CN(Cc1ccco1)C(=O)c1ccc(Cl)cc1 -1.3%
